Source: the RNAGym collection of RNA variant scans (doi:10.1073/pnas.2313332121)
This sample is rich in variants without activity.

B1: TPR 5TU (parent)
chain: GGAUCUUCUCGAUCUAACAAAAAAGACAAAUCUGCCACAAAGCUUGAGAGCAUCUUCGGAUGCAGAGGCGGCAGCCUUCGGUGGCGCGAUAGCGCCAACGUUCUCAACUAUGACACGCAAAACGCGUGCUCCGUUGAAUGGAGUUUAUCAUG

Variants of: B1
Test: polymerase ribozyme fitness, log enrichment relative to wild type (log ratio); higher = more active; in vitro selection for triplet polymerase activity
Outline: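 Each subunit of a heterodimeric triplet polymerase ribozyme was represented by a PCR-built, transcribed mutant library that underwent triplicate single-round in vitro selection with frozen incubation at −7 °C. Extended constructs were recovered by gel excision, streptavidin-bead capture and RT-PCR, and Illumina sequencing of input and output libraries kept genotypes with ≥10 input reads and ≥1 read per output. Fitness is the logarithm of genotype enrichment relative to wild-type enrichment, from inverse-variance-weighted replicate averages, with a logarithm base of 2.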

Variant | polymerase ribozyme fitness (log ratio)
GGCUCUUCUCGAUCUAACAAAAAAGACAAAUCUGCCACAAAGCUUGAGAGCAUCUUCGGAUGCAGAGGCGGCAGCCUUCGGUGGCUCGAUAUCGCCAACGUUCUGAACUAUGACACGCAAAACGCGUGCUCCGUUGAAUGGAGUUUAUCAUG | ≤ -4.2
GGCUCUUGUCCAUCUAACAAAAAAGACAAAUCUGCCACAAAGUUUGAGAGCAUCUUCGGAUGCAGAAGCGGCAGCCUUCGGUGGCGCGAUAGCGCGAACGUCCUCAACUAUGACACGCAAAACGCGUGCUCCGUUGAAUGGAGUUUAUCAUG | ≤ -4.2
GGCUCUUCUCGAUCUAACAAAAAAGACAAAUCUGCCACAAAGCUUGAGCGCAUCUUCGGAUGCAAAGGCGGCAGCCUUCGGUGGCGCGAUAGCGCGAACGUUCUCAACUAUGACACGCAAAACGCGUGCUCCGUUGAAUGGAGUUUAUCAUG | ≤ -4.2
GGCUCUUCUCGAUCUAACAAAAAAGACAAAUCUGCCACAAAGCUUGAGACCAUCUUCGGAUGCAGAGGCGGCAGGCUUCAGUGGCGCGAUAGCGCCAACGUUCUCAACUGUGACACGCAAAACGCGUGCUCCGUUGCAUGGAGUUUGUCGUG | ≤ -4.2
GGCUCUUCUCGAUCUAACAAAAAAGACAAAUCUGCCACAAAGCUUGAGAUCAUCUUCGGAUGCAGAGGCGGCAGCCUUCGGUGGCGCGAUAGCGCCAACGUUCUCAACUAUGACACGCAAAACGCGUGCUCCGUUGAAUGGAGUUUAUCAUG | -1.07
GGCUCUUCUCGAUCUAACAAAAAAGACAAAUCUGCCACAAGGCUUGAGAGCAUCUUCGGAUGCAGAGGCGGCAGCCUUCGGUGGGGCGAUAGCGCCAACGUUCUCAACUAUGACACGCAAAACGCGUGCUCCGUUGAAUGGAGUUUAGCAUG | ≤ -4.2
GGCUCUUCUCGAUCUAACAAAAAAGACAAAUCUGCCACAAAGCUUGAGCGCAUCUUCGGAUGCAGAGGCGGCAGCCGUCGGUGGCGCGAUAGCGCCAAUGUUCUCAAUUAUGACACGCAAAACCCGUGCUCCGUUGAAUGGAGUUUAUCAUG | ≤ -4.2
GGCUCUUCUCGAUCUAACAUAAAAGACAAAUCUGCCACAAAGCUUGAGAGCAUCAUAGGAUGCAGAGGCGGCAGCCAUCGGGUGCGAGAUAGCGCCAACGUUCUCAACUAUGACACGCAAUACGCGUGCUCCCUUGAAUGGAGUUUAUCAUG | ≤ -4.2
GGCUCUUCUCGAUGUAACAAAAAAGACAAAUCUGCCACCAAGCUUGAGAGCAUCUUCGGAUGCAGAGGCGGCAGCCUUCGUUGGCGCGAUAGCGCUAACGUUCUUAACUAUGACACGCAAUACGCGUGCUCCGCCGAAUGGAGUUUACCAUG | ≤ -4.2
GGCUCUUCUCGAUCUAACAAAAAAGACAAAUCUGCCACAAAGCUUGAGAGCAUCUUCGGAUGCAGAGGAGGCAGCCUUCGGUGGCGGGAUAGCGCCAACGUUCUCAACUAUGACACGCAAAACGCGUGCUCCGUUGAAUGGAGUUCAUUAGG | ≤ -4.2
GGCUCUUCUCGAUCUAACAAAAAUGACAAAUCUGCCACAAAGCUUGAGAGCAUCUUCGGAUGCAGAGGCUGCAGCCUUCGGUGGCGCCAUAGCACCAACGUUCUGAACUAUGACACGCAAAACGCGUGCUCCGUUGAAUGGAGUCUAUCAUG | ≤ -4.2
GGCUCUUCUCGAUCUAACAAAUAAGACAAAUCUGCCACAAAGCUUGAGAGCAUCUUCGGAUGCAGAGGCGGCAGCCUUCGGUGGGGCGAUAGCGCCAACGUUCUCAACUAUGACACGCAAAACGCGUGCUCCGUUGAAUGGAGUUUAUCAUG | -2.18
GGCUCUUCUCGAUCUAACAAAAAAGACAAAUCUACCACAAAGCUUGAGAGCAUCUUCGGAUGCAGAGGCGGCAGCCUUCGGUGGCGCGAUAGCGCGAACGUUCUCAACUAUGACACGCAAAACGCGUGCUCCGUUGAAUGGAGUUUAUCAUG | -3.63
GGCUCUUCUAUAUCUAACAAAAAAGACAAAUCUGCCACAAAGCUUGAGAGCAUCAUCGGAUGCAGAGGCGGCAGCCUUCGCUGGUGCGAUAGCGCCAACGUUCUCAACUAUGACACGCAAAACGCGUACUCCGUUGAAUGGAGUUUAUCAUG | ≤ -4.2
GGCUCUUCUCGAUCUAACAAAAAAGACAAAUCUGCCACAAAGCUUGAGAGCAUCUUCGGAUGCAGAGGCGGCAGCCUUCGGUGGAGCGAUAGCGCCAACGUUCUCAACUAUGACACGCAAAACGCGUGCACGGUUGAAUGGAGUUUAUCAUG | ≤ -4.2
GGCUCUUCUCGAUCUAACAAAAAAGACAAAUCUGCUACAAAGCUUGAGAGCAUCUUCGGAUGCAGAGGCGGCAGCCUUCGGUAGCGCGAUAGCGCCAACGUUCUCAACUAUGACACGCAAAACGCGUGCUCCGUUGAAUGGAGUUUAUCAUG | -3.09
GGCUCUUCUCGAUCUAACAAAAAAGACAAAUCUGCCACAAAGUUUGAGAGCAUCUUCGGAUGCAGAGGCGGCAGCCUUCGGUGGCGCGUUAACGCCAACGUUCUCAACUAUGACACGCAAAACGGGUGCUCCGUUGAAUGGAGUUUAUCAUG | ≤ -4.2
GGCUCUUCUCGAUCUAACAAAAAAGAGAAAUCUGCCACAAAGCUUGAGAGCAUCUUCGAAUGCAGAGGCGGCAGCCUUCGAUGGCGGGAUAGCGCCAACGUUCUCAACUAUGACACGCAAAACGCGUGCUCCGUUGAAUGGAGUUUAUCAUG | ≤ -4.2
GGCUCUUCUCGAUCUAACAAAAAAGACAAAUCUGCCACAAAGCUUGAGAGCAUCUUCGGAUGCAGAGGCCGCAGCCUUCGGUGGCGGGAUAGCGCGAACGUUCUCAGCUAUGACACGCAAAACGCGUGCUCCGUUGAAUGGAGUUGAUCAUG | ≤ -4.2
